Measurements as given in PubChem BioAssay AID504333 (National Center for Advancing Translational Sciences (NCATS), 2011).
Among all 360,000 compounds or so, about 16,000 (4.4%) were called active. The shares of active, inactive and inconclusive entries below differ from those in the screen. Calls come from the whole dose curve; as a rule, active = well fitted inhibition curve with a large enough effect; inconclusive = small, poorly fitted or top-dose-only effect; inactive = no such curve, though single readings can be large or run the other way. Where the call is inconclusive, the potency comes from a doubtful curve fit.

Each molecule was assayed against Bromodomain adjacent to zinc finger domain protein 2B (Homo sapiens) (UniProt Q9UIF8) (assay: qHTS Assay for Inhibitors of BAZ2B). Details: AlphaScreen BAZ2B-H3K14Ac peptide displacement; series mostly up to 114 µM.
Chain of UniProt Q9UIF8 (Q9UIF8 whole entry, looked up, the tested form may be a part): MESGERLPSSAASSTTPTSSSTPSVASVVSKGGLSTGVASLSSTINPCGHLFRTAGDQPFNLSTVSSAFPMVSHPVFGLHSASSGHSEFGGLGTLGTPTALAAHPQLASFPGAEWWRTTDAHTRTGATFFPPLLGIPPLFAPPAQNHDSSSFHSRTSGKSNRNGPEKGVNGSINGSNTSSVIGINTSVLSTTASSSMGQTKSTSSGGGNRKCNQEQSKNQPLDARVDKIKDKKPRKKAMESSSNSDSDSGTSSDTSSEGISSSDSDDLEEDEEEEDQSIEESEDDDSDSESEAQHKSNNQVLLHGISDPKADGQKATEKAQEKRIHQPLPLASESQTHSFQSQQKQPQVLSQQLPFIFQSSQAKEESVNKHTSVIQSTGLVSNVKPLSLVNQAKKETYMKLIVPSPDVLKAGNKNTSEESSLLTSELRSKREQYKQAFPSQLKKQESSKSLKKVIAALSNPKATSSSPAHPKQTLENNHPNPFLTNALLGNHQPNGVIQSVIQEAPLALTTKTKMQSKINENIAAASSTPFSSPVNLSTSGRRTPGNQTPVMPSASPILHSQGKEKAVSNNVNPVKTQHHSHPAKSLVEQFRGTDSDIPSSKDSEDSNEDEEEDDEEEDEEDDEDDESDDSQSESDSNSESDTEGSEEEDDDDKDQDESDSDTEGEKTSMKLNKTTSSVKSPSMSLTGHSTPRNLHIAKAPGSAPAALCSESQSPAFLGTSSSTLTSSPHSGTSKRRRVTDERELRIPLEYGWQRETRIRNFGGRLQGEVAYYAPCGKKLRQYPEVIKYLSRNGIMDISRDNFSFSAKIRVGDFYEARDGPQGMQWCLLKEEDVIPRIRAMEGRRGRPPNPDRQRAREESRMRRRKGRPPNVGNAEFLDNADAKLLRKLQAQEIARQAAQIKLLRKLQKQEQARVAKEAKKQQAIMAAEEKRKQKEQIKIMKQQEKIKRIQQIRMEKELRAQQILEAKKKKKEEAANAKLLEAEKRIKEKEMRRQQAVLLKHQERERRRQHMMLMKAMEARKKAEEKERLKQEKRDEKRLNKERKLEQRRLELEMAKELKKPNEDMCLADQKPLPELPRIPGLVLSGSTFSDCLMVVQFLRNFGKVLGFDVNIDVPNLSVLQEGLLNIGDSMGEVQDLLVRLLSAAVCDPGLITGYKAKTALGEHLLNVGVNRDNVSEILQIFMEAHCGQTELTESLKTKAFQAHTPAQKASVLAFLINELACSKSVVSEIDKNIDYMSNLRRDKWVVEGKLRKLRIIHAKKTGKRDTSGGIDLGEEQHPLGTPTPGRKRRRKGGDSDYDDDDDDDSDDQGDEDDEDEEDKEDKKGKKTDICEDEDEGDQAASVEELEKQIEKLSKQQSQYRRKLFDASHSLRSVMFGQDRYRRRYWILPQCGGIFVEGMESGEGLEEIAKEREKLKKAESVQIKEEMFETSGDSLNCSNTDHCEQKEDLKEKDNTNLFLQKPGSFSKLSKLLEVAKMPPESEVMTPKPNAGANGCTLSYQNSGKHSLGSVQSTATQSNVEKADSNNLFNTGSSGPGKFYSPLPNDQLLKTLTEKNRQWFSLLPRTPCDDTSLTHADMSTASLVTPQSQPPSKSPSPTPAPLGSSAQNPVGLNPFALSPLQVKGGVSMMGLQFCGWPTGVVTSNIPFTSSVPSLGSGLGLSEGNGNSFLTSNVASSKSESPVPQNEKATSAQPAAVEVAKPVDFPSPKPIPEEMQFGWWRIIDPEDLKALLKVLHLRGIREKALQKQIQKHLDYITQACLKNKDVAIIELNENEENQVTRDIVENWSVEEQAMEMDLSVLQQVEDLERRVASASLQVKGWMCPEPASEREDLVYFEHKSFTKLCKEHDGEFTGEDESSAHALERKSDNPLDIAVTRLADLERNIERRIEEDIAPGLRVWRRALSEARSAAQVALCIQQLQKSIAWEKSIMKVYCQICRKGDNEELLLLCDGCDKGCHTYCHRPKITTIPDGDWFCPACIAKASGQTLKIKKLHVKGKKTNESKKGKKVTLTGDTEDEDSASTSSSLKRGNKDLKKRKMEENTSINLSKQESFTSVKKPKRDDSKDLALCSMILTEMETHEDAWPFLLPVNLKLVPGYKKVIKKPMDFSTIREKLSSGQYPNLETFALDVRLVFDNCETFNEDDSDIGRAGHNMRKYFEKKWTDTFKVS
Summary of the method: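 In this displacement format the biotinylated H3(5-23) peptide acetylated at Lys14 serves as ligand at 50 nM, with BAZ2B at 50 nM in PBS pH 7.4 containing 0.01% Tween-20. Donor and acceptor beads are 10 ug/mL final.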
Note: nearly all actives have a fitted effect of over 60% in size.
Potency is the fitted concentration of half-maximal effect; tags give direction and shape of the fitted curve.

Row | Compound | Potency
1 | COc1ccccc1N1CCN(C2CCCC(C)C2)CC1 (stereo unspecified) | inconclusive: 89.1 µM [inhibitor, single point]
2 | CC(=O)c1cc(-c2ccccc2)n(CCC(=O)NC2CCCC2)c1C | active: 50.1 µM
3 | NC(=O)c1c(NC(=O)c2nc(SCc3ccccc3F)ncc2Cl)sc2c1CCCC2 | inconclusive: 89.1 µM [inhibitor, single point]
4 | CCOC(=O)c1c(NC(=O)c2ccc(S(=O)(=O)N3CCC(C)CC3)cc2)sc2c1CCN(C)C2 | inactive
5 | Cc1ccc(N2CC(C(=O)Nc3nc4ccc(S(C)(=O)=O)cc4s3)CC2=O)cc1C (stereo unspecified) | inactive
6 | CC1=CCC2C(=O)N(c3ccc(C(=O)N4CCCCCC4)cc3)C(=O)C2C1 (stereo unspecified) | inactive
7 | CCOC(=O)C1CCN(Cc2cc(Cl)c3ccccc3c2O)CC1 | inconclusive: 70.8 µM [inhibitor, single point]
8 | Cc1c(C(=O)c2ccc(Cl)c([N+](=O)[O-])c2)c2ccccn2c1CCC#N | inconclusive: 39.8 µM [inhibitor, full curve]
9 | CCN(CC(=O)Nc1ccccc1OC)CC(=O)Nc1ccccc1-c1ccccc1 | active: 28.2 µM
10 | CCCS(=O)(=O)N1CCN(Cc2ccco2)CC1 | active: 50.1 µM
11 | Cc1[nH]n(-c2ccccc2)c(=O)c1C(C[N+](=O)[O-])c1ccc(F)cc1 (stereo unspecified) | inconclusive: 79.4 µM [inhibitor, single point]
12 | COc1cc(C(CC(=O)N2CCN(c3ccccc3)CC2)c2c(OC)cc(OC)c3ccc(=O)oc23)cc(OC)c1OC (stereo unspecified) | inconclusive: 56.2 µM [inhibitor, partial curve]
13 | CCC(=O)N(CCc1ccccc1)Cc1cc2cccc(C)c2[nH]c1=O | inactive
14 | O=C(NCCc1c[nH]c2ccccc12)c1cc2sccc2n1Cc1ccccc1 | inconclusive: 79.4 µM [inhibitor, single point]
15 | Cc1ccc(C2CC(C(F)(F)F)n3ncc(C(N)=O)c3N2)cc1 (stereo unspecified) | inactive
16 | CCOc1ccc(NC(=O)CSc2ncc3c(n2)-c2ccc(Cl)cc2N(Cc2ccccc2)S3(=O)=O)cc1 | inactive
17 | CCOc1ccc(C(=O)COC(=O)Cc2n[nH]c(=O)c3ccccc23)cc1 | inactive
18 | O=C(N/N=C/c1ccccc1F)c1cc2c(ccc3ccccc32)o1 | inconclusive: 79.4 µM [inhibitor, partial curve]
19 | CC(=O)Nc1ccc(S(=O)(=O)NCC(=O)OCC(=O)N2CCCCCC2)cc1 | inactive
20 | COC(=O)c1nc2n(n1)C(c1cccc(Cl)c1)C(C(=O)Nc1ccccc1OC)=C(C)N2 (stereo unspecified) | inconclusive: 89.1 µM [inhibitor, single point]
21 | Cc1cccc(C)c1NC(=O)C(NS(=O)(=O)c1ccc2c(c1)CCC(=O)N2)c1ccccc1 (stereo unspecified) | inactive
22 | O=C(O)c1ccc(Nc2nc(-c3cccnc3)cs2)cc1O | inactive
23 | COc1ccccc1C(c1nnnn1C(C)(C)C)N1CCN(Cc2ccncc2)CC1 (stereo unspecified) | inconclusive: 89.1 µM [inhibitor, single point]
24 | COCCNc1nnc(SCC(=O)Nc2sc3c(c2C(=O)c2ccccc2)CCCC3)s1 | inconclusive: 39.8 µM [inhibitor, full curve]

Row | Compound | Potency
25 | CCOC(=O)c1cc2c(=O)n3ccccc3nc2n(Cc2ccco2)c1=NC(=O)c1cccnc1 | inconclusive: 89.1 µM [inhibitor, single point]
26 | COc1ccc(OC)c(Cc2nnc(CCC(=O)NC3C4CC5CC(C4)CC3C5)o2)c1 (stereo unspecified) | inactive
27 | Cn1c(CNc2nc(-c3ccccc3)cs2)nnc1SCC(=O)N1CCc2ccccc21 | inconclusive: 31.6 µM [inhibitor, partial curve]
28 | N#CC1=C(SCC(=O)c2ccc(Cl)cc2)NC2=C(C(=O)CCC2)C1c1ccco1 (stereo unspecified) | inconclusive: 70.8 µM [inhibitor, single point]
29 | Cc1ccc(C(=O)N/N=C2\CCc3ccccc32)c(C)c1 | inconclusive: 89.1 µM [inhibitor, single point]
30 | COc1ccc(CSc2nc(CSC)cc(N3CCOCC3)n2)cc1 | inconclusive: 44.7 µM [inhibitor, partial curve]
31 | COc1ccc(C(=O)NNc2ccccc2)cc1 | inconclusive: 89.1 µM [inhibitor, single point]
32 | Cc1nn(Cc2ccc(F)cc2)c(C)c1NC(=O)c1cc(CC(C)C)on1 | inactive
33 | O=C(NNc1ccccn1)c1ccccc1CC[N+](=O)[O-] | inactive
34 | COc1cc(C#Cc2c(-c3ccccc3OC)oc3ccccc23)cc(OC)c1 | inconclusive: 100 µM [inhibitor, single point]
35 | O=C(CCCN1C(=O)/C(=C\c2cccs2)SC1=S)Nc1ccc(C(=O)O)cc1 | inconclusive: 56.2 µM [inhibitor, partial curve]
36 | O=[N+]([O-])c1cc([N+](=O)[O-])c(Oc2ccccc2F)cc1NN1CCCCC1 | inconclusive: 15.8 µM [inhibitor, single point]
37 | COC(=O)C(Cc1cnc(Cl)s1)(C(=O)OC)c1ccc(C(F)(F)F)cc1[N+](=O)[O-] | inconclusive: 89.1 µM [inhibitor, single point]
38 | O=C(CSc1ccncc1)Nc1ccc(S(=O)(=O)Nc2nccs2)cc1 | inconclusive: 79.4 µM [inhibitor, single point]
39 | Cc1nnc(-c2ccccc2)c(=O)n1/N=C/c1c(O)ccc2ccccc12 | active: 25.1 µM
40 | CCOC(=O)Cn1c(CN(Cc2ccccc2)Cc2ccccc2)nc2c1c(=O)[nH]c(=O)n2C | inconclusive: 100 µM [inhibitor, single point]
41 | COc1cccc(C2=CC(c3ccc(N(C)C)cc3)n3ncnc3N2)c1 (stereo unspecified) | inactive
42 | CCCn1c(SCC(=O)N2CCCc3ccccc32)nnc1-c1ccccn1 | inconclusive: 100 µM [inhibitor, single point]
43 | CCCn1c(SCc2nc(-c3ccc(OC)cc3OC)no2)nnc1-c1ccc(Cl)cc1 | inconclusive: 79.4 µM [inhibitor, partial curve]
44 | COc1ccccc1/C=c1\sc2nc(-c3ccco3)nn2c1=O | active: 35.5 µM
45 | CCOC(=O)c1ccc(N2C(=O)c3n[nH]c(C)c3C2c2ccco2)cc1 (stereo unspecified) | inconclusive: 79.4 µM [inhibitor, single point]
46 | CCCN1CCN(C(=O)C2CCN(c3ncnc4c3nc3n4CCCCC3)CC2)CC1 | inactive
47 | CCCC(c1nnnn1C(C)(C)C)N1CCN(Cc2ccccc2OC)CC1 (stereo unspecified) | inconclusive: 63.1 µM [inhibitor, partial curve, poor fit]
48 | CC1(C)Cc2c(C#N)c(N)sc(=S)c2CO1 | inconclusive: 79.4 µM [inhibitor, single point]

Row | Compound | Potency
49 | CCOc1ccc(/C=N/NC(=O)CN2CCCCC2)cc1OCC | inconclusive: 70.8 µM [inhibitor, partial curve]
50 | O=C(CSc1ccccc1)N1CCCC(N2CCN(c3ccccc3)CC2)C1 (stereo unspecified) | inconclusive: 79.4 µM [inhibitor, single point]
51 | COC(=O)c1[nH]c2c(c1C(=O)OC)CCc1ccccc1-2 | inconclusive: 70.8 µM [inhibitor, single point]
52 | CCn1c(=O)c2cc(C(=O)N(CCN(C)C)Cc3ccccc3)sc2c2ccccc21 | inconclusive: 70.8 µM [inhibitor, single point]
53 | N#CCC(=O)N/N=C/c1ccc(Sc2nc3ccccc3s2)o1 | inconclusive: 89.1 µM [inhibitor, single point]
54 | COC(=O)C1=C(Nc2ccccc2NC(=O)CCCC(=O)O)CSC1 | inactive
55 | Cn1cccc1/C=N/N1CCN(Cc2cccc3ccccc23)CC1 | active: 22.4 µM
56 | C/C(=C1/SC(=S)N(CCC(=O)O)C1=O)c1ccc(O)cc1 | inconclusive: 70.8 µM [inhibitor, single point]
57 | O=C(NCC(=O)N(c1ccc(F)cc1)C(C(=O)NC1CCCC1)c1ccncc1)c1ccco1 (stereo unspecified) | inactive
58 | CC1CC(C)CN(C(=O)c2cccc(S(=O)(=O)Nc3cc(C(F)(F)F)ccc3Cl)c2)C1 (stereo unspecified) | active: 79.4 µM
59 | Cc1cccc2sc(NNC(=O)c3ccc4c(c3)OCCO4)nc12 | inconclusive: 11.2 µM [inhibitor, full curve]
60 | O=C(C[n+]1ccccc1)NNc1ccccc1 | inactive
61 | Cn1c(-c2ccccc2)cc(=O)c2ccccc21 | inactive
62 | Cc1nc2oc3c(NCc4ccccn4)ncnc3c2c2c1COC(C)(C)C2 | inconclusive: 89.1 µM [inhibitor, single point]
63 | CC(=O)N1CCN(c2ccc(NC(=O)c3ccc(Br)o3)cc2Cl)CC1 | inconclusive: 79.4 µM [inhibitor, single point]
64 | Cc1ccc(CNC(=O)c2ccc(OCC(C)C)cc2)n1C | inactive
65 | COc1ccc(F)cc1S(=O)(=O)NCCc1c(C)[nH]c2c(Cl)cccc12 | inconclusive: 39.8 µM [inhibitor, partial curve]
66 | CCC(C)NC(=O)CSc1nc2ccccc2c(=O)n1Cc1ccc(OC)cc1 (stereo unspecified) | inconclusive: 7.08 µM [inhibitor, single point]
67 | CCc1cccc(OCC(=O)Nc2ccc(S(=O)(=O)Nc3cc(C)nc(C)n3)cc2)c1 | inactive
68 | COc1cc(/C=N/NC(=O)c2cncc(Br)c2)cc([N+](=O)[O-])c1O | active: 8.91 µM
69 | Cc1ccc(Cn2nnnc2CN2CCC(O)(c3cccnc3)CC2)cc1 | inconclusive: 79.4 µM [inhibitor, single point]
70 | Nc1nc2ccc(Oc3ccccc3)cc2s1 | inconclusive: 100 µM [inhibitor, single point]
71 | O=C(NNC(=O)c1ccc2c(c1)OCO2)NC12CC3CC(CC(C3)C1)C2 | inactive
